# In the supplement of paper PMC4604168 (melanoma cell lines):
# This is one part of the list. Single values are uncertain, as repeats are few or missing.
# How the values were obtained:
# Experiment in all cases: cell count relative to DMSO control; melanoma cells; higher = more viable cells
# Settings in all cases: library dose: standard library concentration; 72 h
# [1] = tested on: A101D
# [2] = tested on: A2058
# [3] = tested on: A375
# 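Note: cells treated in 1,536-well plates, then fixed and DAPI-stained, with nuclei counted from automated high-throughput microscope images.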
SMILES,cell count [1] [%],cell count [2] [%],cell count [3] [%]
"Cn1c(Nc2ccc(C(F)(F)F)cc2)nc2cc(Oc3ccnc(-c4ncc(C(F)(F)F)[nH]4)c3)ccc21 + Nc1cccc2c1CN(C1CCC(=O)NC1=O)C2=O [lenalidomide] (first compound 0.4 µM, partner dose 5 µM)",63.3,95.8,83.7
"Nc1cccc2c1CN(C1CCC(=O)NC1=O)C2=O (configuration not stated) [lenalidomide] + COc1cc2c(Oc3ccc4[nH]c(C)cc4c3F)ncnc2cc1OCCCN1CCCC1 [cediranib] (first compound 5 µM, partner dose 2 µM)",99.2,111,94.3
"OCc1c[nH]c2ccccc12 [Indole-3-carbinol] + CC1(C)NC(=O)N(c2ccc([N+](=O)[O-])c(C(F)(F)F)c2)C1=O [nilutamide] (first compound 4 µM, partner dose 5 µM)",95.5,110,83.1
"OCc1c[nH]c2ccccc12 [Indole-3-carbinol] + COc1ccc(Cl)c(Nc2nc3ccccc3nc2NS(=O)(=O)c2cccc(NC(=O)C(C)(C)N)c2)c1 [XL147] (first compound 4 µM, partner dose 4 µM)",118,79.3,80.5
"Cn1c(Nc2ccc(C(F)(F)F)cc2)nc2cc(Oc3ccnc(-c4ncc(C(F)(F)F)[nH]4)c3)ccc21 + CC(C)(C)c1cnc(CSc2cnc(NC(=O)C3CCNCC3)s2)o1 [SNS-032] (first compound 0.4 µM, partner dose 0.05 µM)",39.8,49.7,61.7
"C#Cc1cccc(Nc2ncnc3cc(OCCOC)c(OCCOC)cc23)c1 [erlotinib] + CO[C@@H]1[C@H](N(C)C(=O)c2ccccc2)C[C@H]2O[C@]1(C)n1c3ccccc3c3c4c(c5c6ccccc6n2c5c31)C(=O)NC4 [Midostaurin] (first compound 4 µM, partner dose 0.4 µM)",43.3,35.9,82.1
"COCC[n+]1c2c(n(Cc3cnccn3)c1C)C(=O)c1ccccc1C2=O + C[C@]1(c2nc3c(C(N)=O)cccc3[nH]2)CCCN1 [Veliparib] (first compound 0.002 µM, partner dose 7 µM)",68.7,23.6,99.4
"OCc1c[nH]c2ccccc12 [Indole-3-carbinol] + CC(C)(C)c1cnc(CSc2cnc(NC(=O)C3CCNCC3)s2)o1 [SNS-032] (first compound 4 µM, partner dose 0.05 µM)",73.2,79.5,91.9
"Clc1ccc(Nc2nnc(Cc3ccncc3)c3ccccc23)cc1 [vatalanib] + Cc1nc(Nc2ncc(C(=O)Nc3c(C)cccc3Cl)s2)cc(N2CCN(CCO)CC2)n1 [dasatanib] (first compound 10 µM, partner dose 0.02 µM)",60.2,59.5,78.5
"Nc1cccc2c1CN(C1CCC(=O)NC1=O)C2=O (configuration not stated) [lenalidomide] + COc1cc(Nc2ncc(F)c(Nc3ccc4c(n3)NC(=O)C(C)(C)O4)n2)cc(OC)c1OC [Tamatinib] (first compound 5 µM, partner dose 2 µM)",24.5,72.3,98
"Cn1c(Nc2ccc(C(F)(F)F)cc2)nc2cc(Oc3ccnc(-c4ncc(C(F)(F)F)[nH]4)c3)ccc21 + CN(NC(=O)CC(=O)NN(C)C(=S)c1ccccc1)C(=S)c1ccccc1 [STA4783] (first compound 0.4 µM, partner dose 0.03 µM)",46.2,13.8,94.6
"COCC[n+]1c2c(n(Cc3cnccn3)c1C)C(=O)c1ccccc1C2=O + Cc1ccc(NC(=O)c2cccc(N(C)C)c2)cc1NC(=O)c1ccc(O)cc1 [ZM336372] (first compound 0.002 µM, partner dose 10 µM)",76.8,17,100
"OCc1c[nH]c2ccccc12 [Indole-3-carbinol] + NC(=O)Nc1cc(-c2cccc(F)c2)sc1C(=O)N[C@H]1CCCNC1 [AZD7762] (first compound 4 µM, partner dose 0.1 µM)",60.2,95.2,66
"Clc1ccc(Nc2nnc(Cc3ccncc3)c3ccccc23)cc1 [vatalanib] + NC(=O)Nc1cc(-c2cccc(F)c2)sc1C(=O)N[C@H]1CCCNC1 [AZD7762] (first compound 10 µM, partner dose 0.1 µM)",59.2,64,76.3
"O=C(CCCCCCC(=O)Nc1ccccc1)NO [vorinostat] + O=C(Nc1cccc(Cl)c1)Nc1ncc(CCNc2ncnc3ccsc23)s1 [SNS314] (first compound 0.4 µM, partner dose 0.004 µM)",65.9,65.6,104
"OCc1c[nH]c2ccccc12 [Indole-3-carbinol] + C[C@]1(c2nc3c(C(N)=O)cccc3[nH]2)CCCN1 [Veliparib] (first compound 4 µM, partner dose 7 µM)",99.9,93.9,99.7
"Cn1c(Nc2ccc(C(F)(F)F)cc2)nc2cc(Oc3ccnc(-c4ncc(C(F)(F)F)[nH]4)c3)ccc21 + C[C@]1(c2nc3c(C(N)=O)cccc3[nH]2)CCCN1 [Veliparib] (first compound 0.4 µM, partner dose 7 µM)",42.5,63.1,88.2
"C#Cc1cccc(Nc2ncnc3cc(OCCOC)c(OCCOC)cc23)c1 [erlotinib] + Cc1ccc(NC(=O)c2cccc(N(C)C)c2)cc1NC(=O)c1ccc(O)cc1 [ZM336372] (first compound 4 µM, partner dose 10 µM)",69,89.7,89.1
"Clc1ccc(Nc2nnc(Cc3ccncc3)c3ccccc23)cc1 [vatalanib] + COc1cc2c(Oc3ccc4[nH]c(C)cc4c3F)ncnc2cc1OCCCN1CCCC1 [cediranib] (first compound 10 µM, partner dose 2 µM)",82.7,75.3,86.2
"O=C(CCCCCCC(=O)Nc1ccccc1)NO [vorinostat] + CN(NC(=O)CC(=O)NN(C)C(=S)c1ccccc1)C(=S)c1ccccc1 [STA4783] (first compound 0.4 µM, partner dose 0.03 µM)",39.9,9.29,127
"COCC[n+]1c2c(n(Cc3cnccn3)c1C)C(=O)c1ccccc1C2=O + C=CCn1c(=O)c2cnc(Nc3ccc(N4CCN(C)CC4)cc3)nc2n1-c1cccc(C(C)(C)O)n1 [MK1775] (first compound 0.002 µM, partner dose 0.1 µM)",62,15.9,57.2
"Nc1cccc2c1CN(C1CCC(=O)NC1=O)C2=O (configuration not stated) [lenalidomide] + Cn1nnc2c(C(N)=O)ncn2c1=O [temozolomide] (first compound 5 µM, partner dose 10 µM)",86.4,62.3,101
"Nc1cccc2c1CN(C1CCC(=O)NC1=O)C2=O (configuration not stated) [lenalidomide] + C[C@]1(c2nc3c(C(N)=O)cccc3[nH]2)CCCN1 [Veliparib] (first compound 5 µM, partner dose 7 µM)",94.9,97.8,101
"C#Cc1cccc(Nc2ncnc3cc(OCCOC)c(OCCOC)cc23)c1 [erlotinib] + CN(NC(=O)CC(=O)NN(C)C(=S)c1ccccc1)C(=S)c1ccccc1 [STA4783] (first compound 4 µM, partner dose 0.03 µM)",52,16.5,102
"C#Cc1cccc(Nc2ncnc3cc(OCCOC)c(OCCOC)cc23)c1 [erlotinib] + C=CCn1c(=O)c2cnc(Nc3ccc(N4CCN(C)CC4)cc3)nc2n1-c1cccc(C(C)(C)O)n1 [MK1775] (first compound 4 µM, partner dose 0.1 µM)",48.7,79.8,67.3
"COCC[n+]1c2c(n(Cc3cnccn3)c1C)C(=O)c1ccccc1C2=O + OCCn1cc(-c2cnc3nnn(Cc4ccc5ncccc5c4)c3n2)cn1 [PF04217903] (first compound 0.002 µM, partner dose 5 µM)",70.6,17.5,82.5
"OCc1c[nH]c2ccccc12 [Indole-3-carbinol] + C[C@@H]1CCN(C(=O)CC#N)C[C@@H]1N(C)c1ncnc2[nH]ccc12 [CP690550] (first compound 4 µM, partner dose 5 µM)",89.6,105,96.1
"Nc1cccc2c1CN(C1CCC(=O)NC1=O)C2=O (configuration not stated) [lenalidomide] + O=C(O)c1ccc(-c2c[nH]c3ncc(-c4ccccc4)cc23)cc1C1CCCC1 [GSK650394] (first compound 5 µM, partner dose 0.8 µM)",90.3,112,105
"COCC[n+]1c2c(n(Cc3cnccn3)c1C)C(=O)c1ccccc1C2=O + COc1cc(Nc2ncc(F)c(Nc3ccc4c(n3)NC(=O)C(C)(C)O4)n2)cc(OC)c1OC [Tamatinib] (first compound 0.002 µM, partner dose 2 µM)",13.6,13.6,69.4
